This note sets out measurements from the supplement of paper PMC8007513.

The subject of the experiment is Trichoderma virens ATCC 9645. Kind of experiment: growth yield (OD600) relative to untreated control; higher = less growth inhibition. The note with it: compound concentration: 100 uM. The essentials:
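Library compounds (100 μM final), with or without a co-applied biocide (200 ng ml^−1), were added to 100 μl aliquots of Trichoderma virens ATCC 9645 spores at 15,000 spores ml^−1 in potato dextrose broth. Cultures were grown at 30 °C in 96-well plates, and OD600 was measured at 40 h and 72 h. Each growth value is a mean of duplicate screens, expressed relative to the control with neither agent.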

SMILES strings stand for the structures. Structures can show the parent of a compound that is named as a salt. ± gives the standard error. Out of some 1,300 compounds screened, about 75 (6%) showed an effect of 50% or more. Some of the results follow.

In the case of `Cc1c(OCC(F)(F)F)ccnc1C[S+]([O-])c1nc2ccccc2[nH]1` (stereo unspecified) [Lansoprazole], the growth yield is 78 ± 2.4% (40 h) and 87 ± 1.7% (72 h).

As to `Cn1c(=O)c2c(ncn2C)n(C)c1=O` [Caffeine], the growth yield stood at 104 ± 1.8% (40 h) and 99.9 ± 1.1% (72 h).

For `CN(C)CCCC1(c2ccc(F)cc2)OCc2cc(C#N)ccc21` (stereo unspecified) [Citalopram Hydrobromide], the growth yield runs as follows: (40 h) 90.54 ± 0.64%; (72 h) 93.1 ± 2.1%.

For the molecule `CCCC(CCC)C(=O)O` [Valproic acid], the growth yield is, setting by setting: (40 h) 88.63 ± 0.32%; (72 h) 87.9 ± 1.7%.

Regarding `Cc1onc(-c2ccccc2)c1C(=O)N[C@@H]1C(=O)N2[C@@H]1SC(C)(C)[C@@H]2C(=O)O` [Oxacillin sodium], the growth yield by setting is: (40 h) 111 ± 1.6%; (72 h) 105 ± 1.4%.

Turning to `O=C(O)CNC(=O)C(CS)Cc1ccccc1` (stereo unspecified) [Thiorphan], the growth yield was 97.8 ± 1.9% (40 h) and 98.06 ± 0.32% (72 h).

For the molecule `CN(C)CCC(c1ccc(Cl)cc1)c1ccccn1` (stereo unspecified) [Chlorpheniramine maleate], the growth yield reads like this: (40 h) 101 ± 1.8%; (72 h) 103 ± 2.7%.

In the case of `COc1cc(N)c(Cl)cc1C(=O)NC1CCN(CCCOc2ccc(F)cc2)CC1OC` (stereo unspecified) [Cisapride], the growth yield is 108% (40 h) and 109% (72 h).

Molecule `COC1=CC(=O)C[C@@H](C)[C@]12Oc1c(Cl)c(OC)cc(OC)c1C2=O` [Griseofulvin] showed a growth yield (40 h) of 81.3 ± 10% and a growth yield (72 h) of 93.7 ± 6.8%.

`CCOC(=O)C1=C(C)NC(C)=C(C(=O)OC)C1c1cccc([N+](=O)[O-])c1` (stereo unspecified) [Nitrendipine] gave a growth yield (40 h) of 85.6 ± 1.1% and a growth yield (72 h) of 89.9 ± 3.7%.

As for `CCn1cc(C(=O)O)c(=O)c2cc(F)c(N3CCNCC3)cc21` [Norfloxacin], the growth yield runs as follows: (40 h) 93.1 ± 1.9%; (72 h) 90.9 ± 3.2%.

For the molecule `O=C(c1ccc(OCCN2CCCCC2)cc1)c1c(-c2ccc(O)cc2)sc2cc(O)ccc12` [Raloxifene hydrochloride], the growth yield runs as follows: (40 h) 97.1 ± 8.7%; (72 h) 106 ± 8.2%.

With `CC(CN1c2ccccc2Sc2ccccc21)N(C)C` (stereo unspecified) [Promethazine hydrochloride], the growth yield reads like this: (40 h) 98.5%; (72 h) 103 ± 1.1%.

The molecule `NS(=O)(=O)c1cc2c(cc1C(F)(F)F)NC(Cc1ccccc1)NS2(=O)=O` (stereo unspecified) [Bendroflumethiazide] came in with a growth yield (40 h) of 106 ± 3.3% and a growth yield (72 h) of 102 ± 3.4%.

Turning to `COc1cc(N)c(Cl)cc1C(=O)NC1CCN(Cc2ccccc2)CC1` [Clebopride maleate], the growth yield stood at 99.28 ± 0.48% (40 h) and 102 ± 1.5% (72 h).

As to `CCN1CCCC1CNC(=O)c1cc(S(=O)(=O)CC)c(N)cc1OC` (stereo unspecified) [Amisulpride], the growth yield stood at 96.6 ± 1.6% (40 h) and 99.5 ± 1.6% (72 h).

As for `Nc1nc(N)nc(-c2cc(Cl)ccc2Cl)n1` [Irsogladine maleate], the growth yield amounted to 99.43 ± 0.95% (40 h) and 93.8 ± 1.1% (72 h).

Consider `CC(C)[C@H]1CC[C@H](C(=O)N[C@H](Cc2ccccc2)C(=O)O)CC1` [Nateglinide], for which the growth yield came to 99.1 ± 5.4% (40 h) and 94 ± 6.7% (72 h).

As to `CC(C)c1nc(CN(C)C(=O)N[C@H](C(=O)N[C@@H](Cc2ccccc2)C[C@H](O)[C@H](Cc2ccccc2)NC(=O)OCc2cncs2)C(C)C)cs1` [Ritonavir], the growth yield is 112 ± 4.8% (40 h) and 115 ± 9.1% (72 h).

Turning to `COc1ccccc1OCCNCC(O)COc1cccc2[nH]c3ccccc3c12` (stereo unspecified) [Carvedilol], the growth yield reads like this: (40 h) 108 ± 4%; (72 h) 111.8 ± 1.1%.

Regarding `CC1CCc2cc(F)cc3c(=O)c(C(=O)O)cn1c23` (stereo unspecified) [Flumequine], the growth yield turned out to be 95.5 ± 2.4% (40 h) and 98.9 ± 4.7% (72 h).

`O=C(NCC1CCCCN1)c1cc(OCC(F)(F)F)ccc1OCC(F)(F)F` (stereo unspecified) [Flecainide acetate]: the growth yield (40 h) was determined as 98 ± 2.7% and the growth yield (72 h) worked out at 95.2 ± 4.8%.

Regarding `CCCCOc1ccc(OCCCN2CCOCC2)cc1` [Pramoxine hydrochloride], the growth yield is, setting by setting: (40 h) 89.6 ± 1.9%; (72 h) 90.5 ± 2.2%.

`CC(CCc1ccc(O)cc1)NCCc1ccc(O)c(O)c1` (stereo unspecified) [Dobutamine hydrochloride]: the growth yield is, setting by setting: (40 h) 90.5 ± 1.6%; (72 h) 88.9 ± 3.1%.

As for `CNCC[C@@H](Oc1cccc2ccccc12)c1cccs1` [(R)-Duloxetine hydrochloride], the growth yield came to 99.1 ± 2.9% (40 h) and 107 ± 3.1% (72 h).

Take `Nc1ccc(S(N)(=O)=O)cc1` [Sulfanilamide]: the growth yield (40 h) was found to be 105 ± 4.5% and the growth yield (72 h) worked out at 100 ± 3.4%.

Regarding `CCOC(=O)c1ccc(C#Cc2ccc3c(c2)C(C)(C)CCS3)nc1` [Tazarotene], the growth yield was found to be 90.38 ± 0.48% (40 h) and 95.65 ± 0.21% (72 h).

`CCC(C)(C)c1ccc(CC(C)CN2C[C@@H](C)O[C@@H](C)C2)cc1` (stereo partly specified) [Amorolfine hydrochloride] displayed a growth yield (40 h) of 4.45 ± 0.32% and a growth yield (72 h) of 2.94 ± 0.21%.

For `CC[C@]12CCCN3CCc4c(n(c5ccccc45)[C@@](O)(C(=O)OC)C1)[C@@H]32` [Vincamine], the growth yield reads like this: (40 h) 97.37 ± 0.16%; (72 h) 95.3 ± 1.4%.

For the molecule `CNC1(C)C2CCC(C2)C1(C)C` (stereo unspecified) [Mecamylamine hydrochloride], the growth yield was 95.8 ± 5.6% (40 h) and 91.7 ± 2.9% (72 h).

`CC(=C(CCO)SSCC1CCCO1)N(C=O)Cc1cnc(C)nc1N` (stereo in doubt) [Fursultiamine Hydrochloride] returned a growth yield (40 h) of 104 ± 5.2% and a growth yield (72 h) of 101 ± 3.1%.

Consider `CCC(C)(CN(C)C)OC(=O)c1ccccc1` (stereo unspecified) [Amyleine hydrochloride], for which the growth yield was 103 ± 6.8% (40 h) and 100 ± 4.6% (72 h).

For the molecule `C=C(NC(=O)C(=C)NC(=O)c1csc(C2=N[C@@H]3c4csc(n4)[C@H]4NC(=O)c5csc(n5)[C@H]([C@](C)(O)[C@@H](C)O)NC(=O)[C@H]5CSC(=N5)/C(=C/C)NC(=O)[C@H]([C@@H](C)O)NC(=O)c5csc(n5)[C@]3(CC2)NC(=O)[C@H](C)NC(=O)C(=C)NC(=O)[C@H](C)NC(=O)[C@H]([C@@H](C)CC)N[C@@H]2C=Cc3c([C@H](C)O)cc(nc3[C@H]2O)C(=O)O[C@@H]4C)n1)C(N)=O` [Thiostrepton], the growth yield (40 h) is 96.6 ± 2.9% and the growth yield (72 h) was found to be 99 ± 2.1%.
